Measurements as given in PubChem BioAssay AID623901 (Broad Institute, 2012).
Hit rate of the full screen: of about 340,000 compounds, about 470 (0.14%) were called active. The shares of active, inactive and inconclusive entries below differ from those in the screen.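 How the source made its calls: active means mean activation of 30% or more, with every replicate also reaching 30%; inconclusive means mean activation of 30% or more but some replicate falls short; inactive means the rest.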

Assay: small molecules raising miR-122 sensor signal – cell-based, Huh7 psiCHECK-miR122, Renilla luciferase, single point, primary screen (AID 623901);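 further: 0% = median of neutral control wells and 100% = median of positive control wells; higher luciferase signal means stronger suppression of miR-122 activity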
Conditions: 48 h, at 12.5 µM, active compounds read high

activation, inactive:
C[C@@H]1CN([C@@H](C)CO)S(=O)(=O)c2ccc(C#Cc3ccncc3)cc2O[C@@H]1CN(C)C(=O)c1ccncc1 19.7%, CC(C)NC(=O)N(C)C[C@@H]1Oc2cc(-c3ccccc3)ccc2S(=O)(=O)N([C@H](C)CO)C[C@@H]1C -0.0795%, C[C@@H]1CN([C@H](C)CO)C(=O)c2cc(/C=C/c3ccccc3)cnc2O[C@H]1CN(C)C(=O)c1ccncc1 4.46%, COc1cccc(NC(=O)N(C)C[C@@H]2Oc3ncc(C#Cc4ccccc4)cc3C(=O)N([C@@H](C)CO)C[C@@H]2C)c1 -1.67%, Cc1ccc(Cl)cc1NC(=S)N(CCCN1CCOCC1)Cc1ccccn1 -160%, Cc1ccccc1-c1ccc2c(c1)O[C@H](CN(C)C(=O)Nc1ccccc1)[C@H](C)CN([C@H](C)CO)S2(=O)=O -16.3%, COCC(=O)N(C)C[C@@H]1Oc2ncc(C#Cc3ccccc3OC)cc2C(=O)N([C@@H](C)CO)C[C@H]1C 5.1%

activation, active:
CCC(=O)N1[C@H](CN(C(C)C)S(C)(=O)=O)[C@@H](c2ccccc2)[C@@H]1CO 91.7%, CCCNC(=O)C[C@@H]1CC[C@@H]2[C@@H](COc3ccc(NC(=O)Nc4ccccc4F)cc3C(=O)N2C)O1 50%, C[C@H](NC(=O)C[C@H]1CC[C@@H]2[C@@H](COc3ccc(NS(=O)(=O)c4ccc(Cl)cc4)cc3C(=O)N2C)O1)c1ccccc1 45%

activation, inconclusive:
CN1C(=O)c2cc(NC(=O)C3CC3)ccc2OC[C@@H]2O[C@H](CC(=O)NC3CCC3)CC[C@H]21 32.5%, CN1C(=O)c2cc(NC(=O)Nc3ccccc3Cl)ccc2OC[C@H]2O[C@H](CC(=O)O)CC[C@H]21 43.3%, CC(C)C(=O)Nc1ccc2c(c1)C(=O)N(C)[C@@H]1CC[C@H](CC(=O)NCC3CC3)O[C@H]1CO2 41.7%, CCSc1nnc(-c2cccnc2)n1-c1ccc(C)c(Cl)c1 39.8%, CCNC(=O)C[C@@H]1CC[C@H]2[C@H](COc3ccc(NC(=O)c4ccccc4)cc3C(=O)N2C)O1 41.7%, CNC(=O)C[C@H]1CC[C@H]2[C@@H](COc3ccc(NC(=O)C4CC4)cc3C(=O)N2C)O1 43.3%, COCC(=O)Nc1ccc2c(c1)C(=O)N(C)[C@H]1CC[C@@H](CC(=O)NCCCN(C)C)O[C@@H]1CO2 32.5%, CCC(=O)Nc1ccc2c(c1)C(=O)N(C)[C@@H]1CC[C@H](CC(=O)Nc3cccc(OC)c3)O[C@@H]1CO2 41.7%
